# Assay results from PubChem BioAssay AID1347120 (National Center for Advancing Translational Sciences (NCATS), 2019).
# The campaign covered roughly 390,000 compounds. About 930 (0.24%) were called active. The inconclusive results got no clear call from the source; some entries with a clear call stand among them for comparison. Calls come from the whole dose curve; as a rule, active = well fitted activation curve with a large enough effect; inconclusive = small, poorly fitted or top-dose-only effect; inactive = no such curve, though single readings can be large or run the other way. A potency beside an inconclusive call is a rough fit, not a confirmed value.
# Experiment: qHTS for Suppressors of FUS Proteinopathy: Primary screen using FUS-linked yeast assay; note: nearly all actives have a fitted effect of over 55% in size
# Conditions: S. cerevisiae FUS-expressing, OD600, 24 h; Potency: growth rescue; series mostly up to 76.6 µM
# Method in brief: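 Compound concentration series was pinned onto galactose-induced FUS-expressing yeast seeded at OD 0.005. Plates sat 24hr at 30C; absorbance at 600 nm gave growth. DMSO served as background control.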
# Potency is the fitted concentration of half-maximal effect; tags give direction and shape of the fitted curve.
row,SMILES,Potency
1,C[C@H]1CN([C@@H](C)CO)C(=O)c2cccc(NC(=O)c3ccc(-c4nccs4)cc3)c2O[C@@H]1CN(C)C(=O)NC1CCCCC1,"inconclusive: 10 µM [activator, partial curve]"
2,COc1ccccc1-n1c(SC)nc(O)cc1=O,"inconclusive: 35.5 µM [activator, single point]"
3,Cc1ccc(Cl)cc1N1CCN(C(=O)c2cnn(C)c2C2CCN(C(=O)OC(C)(C)C)CC2)CC1,"inconclusive: 20 µM [activator, partial curve, poor fit]"
4,OCCC1CN(CCCc2ccccc2)CCN1Cc1ccc(F)cc1 (stereo not drawn),inactive
5,COCCNC(=S)N/N=C(\C)c1ccc(OC)cc1,inactive
6,COc1cccc(NC(=O)CSc2nnc(-c3cccc(OC)c3)o2)c1,inactive
7,CC(=O)N=c1sc2ccccc2n1C,inactive
8,COc1cccc(C2CC(=O)Nc3c2ccc(C)c3C)c1OC (stereo not drawn),inactive
9,COc1ccc(CNC(=O)c2cc(Nc3ccccc3C)nc3ccccc23)cc1,inactive
10,COc1ccc(Cl)cc1NC(=O)CSc1cn(CC(=O)N2CCCCC2)c2ccccc12,"inconclusive: 31.6 µM [activator, partial curve, poor fit]"
11,CCOc1ccc(CN2C(=O)c3ccccc3Sc3ccc(C(=O)NCc4ccco4)cc32)cc1,"inconclusive: 15.8 µM [activator, partial curve, poor fit]"
12,Cc1cc2cc(CNC(=O)c3ccc(S(=O)(=O)N4CCCCC4)cc3)ccc2[nH]1,"inconclusive: 31.6 µM [activator, single point]"
13,COc1ccc(-c2cc(C(F)(F)F)nc(SCCC(=O)Nc3ccc(NC(C)=O)cc3)n2)cc1,inactive
14,Cc1ccc(NC(=O)C2CCN(S(=O)(=O)c3ccc4c(c3)CC(C)N4C(=O)C3CCC3)CC2)nc1 (stereo not drawn),"inconclusive: 22.4 µM [activator, partial curve, poor fit]"
15,COC(=O)[C@]12C[C@H](CC(=O)NCCCN3CCCC3=O)C(=O)N(Cc3cccc4ccccc34)C1=C[C@H](C(C)C)O[C@@H]2C1CC1,"inconclusive: 11.2 µM [activator, partial curve, poor fit]"
16,C=CCn1c(NC(=O)c2ccccc2)nc2ccccc21,inactive
17,CCn1c(Cc2cccs2)nnc1SCC(=O)Nc1ccc(OCc2ccccc2)cc1,"inconclusive: 15.8 µM [activator, partial curve, poor fit]"
18,Cc1ccccc1-c1cc2nc(NCc3ccccc3)n(C)c(=O)c2s1,active: 28.2 µM
19,Cc1cc(NC(=O)c2ccc3c(c2)N(Cc2cccc(Cl)c2)C(=O)c2ccccc2S3(=O)=O)ccc1Br,"inconclusive: 25.1 µM [activator, partial curve, poor fit]"
20,O=C(CS(=O)(=O)c1cccc2nsnc12)N1CCN(c2ccccc2F)CC1,inactive
21,N#Cc1cccc(NC(=O)c2cc(C3CCCCN3C(=O)c3cccs3)on2)c1 (stereo not drawn),inactive

row,SMILES,Potency
1,O=C1CC(c2c(Cl)cccc2Cl)c2c(ccc3ccccc23)N1 (stereo not drawn),inactive
2,Cc1cc(C)n(-c2ccc(C(=O)OCC(=O)Nc3ccccc3F)cc2)n1,inactive
3,CCc1cccc(C)c1NC(=O)CN1CCN(S(=O)(=O)c2ccc(C(C)(C)C)cc2)CC1,active: 35.5 µM
4,Cc1ccc(N(CC(=O)NC2CCC(C)CC2)S(=O)(=O)c2cccnc2)cc1 (stereo not drawn),"inconclusive: 28.2 µM [activator, single point]"
5,O=C(NCCCN1CCCC1)[C@H](CSCc1ccccc1)N1Cc2ccccc2C1=O,"inconclusive: 7.08 µM [activator, partial curve]"
6,CC(C)CNS(=O)(=O)c1ccc(CCC(=O)Nc2cc(Cl)ccc2Oc2ccccc2)cc1,"inconclusive: 11.2 µM [activator, single point]"
7,COc1cccc(-c2nc3c(c(SCC(=O)N4CCOCC4)n2)Cc2c(CO)cnc(C)c2O3)c1,"inconclusive: 25.1 µM [activator, single point]"
8,Cn1c(N)c(C(=O)COC(=O)c2cc(-c3ccccc3)nc3ccccc23)c(=O)n(Cc2ccccc2)c1=O,"inconclusive: 28.2 µM [activator, single point]"
9,CC1CCN(c2ccc3c(c2)S(=O)(=O)c2cccc(C(=O)NCc4ccc(F)cc4)c2C3=O)CC1,inactive
10,Cc1ccc(-c2nn(-c3cc(N4CCNCC4)ccc3[N+](=O)[O-])c(=O)c3ccccc23)cc1,"inconclusive: 28.2 µM [activator, single point]"
11,Cc1ccc(-n2ncc(C(=O)NCCN3CCc4ccccc4C3)c2C2CCN(C(=O)OC(C)(C)C)CC2)cc1C,"inconclusive: 25.1 µM [activator, single point]"
12,O=C(Nc1ccc(F)cc1)OCc1cn(Cc2cccc(C(F)(F)F)c2)nn1,inactive
13,CCc1nnc(NS(=O)(=O)c2ccc(NCc3cc(Cl)ccc3O)cc2)s1,"inconclusive: 22.4 µM [activator, partial curve, poor fit]"
14,CC1CCN(C(c2ccccc2)c2sc3nc(-c4ccco4)nn3c2O)CC1 (stereo not drawn),inactive
15,COc1ccc(N(C(=O)c2snc(C(N)=O)c2N)C(C(=O)NC2CCCC2)c2ccco2)cc1OC (stereo not drawn),"inconclusive: 14.1 µM [activator, partial curve, poor fit]"
16,COc1ccc(NC(=O)CSc2nc(-c3cc(OC)c(OC)c(OC)c3)[nH]c2-c2ccc(F)cc2)cc1,"inconclusive: 39.8 µM [activator, single point]"
17,COC(=O)[C@]12C[C@H](CC(=O)NCc3cccc4ccccc34)C(=O)N(CCc3ccc(OC)c(OC)c3)C1=C[C@H](COCc1ccccc1)O[C@@H]2C,"inconclusive: 12.6 µM [activator, partial curve, poor fit]"
18,C=CCC[C@@H](Cc1ccc(F)cc1)C(=O)OC[C@@H](Cc1c[nH]c2ccccc12)NC(=O)[C@@H](CC=C)CC(=O)N[C@H](CO)Cc1ccccc1,active: 25.1 µM
19,O=S(Cc1ccccc1)CC(O)(c1ccc(Cl)cc1)c1ccc(Cl)cc1 (stereo not drawn),"inconclusive: 31.6 µM [activator, partial curve, poor fit]"
20,COc1ccc(S(=O)(=O)N2CCCCC2c2cc(C(=O)Nc3ccc(OC)cc3C)no2)cc1 (stereo not drawn),"inconclusive: 44.7 µM [activator, single point]"
21,CCOc1ccc(S(=O)(=O)Nc2cccc(C(=O)N3CCN(c4ccc(OC)cc4)CC3)c2)cc1,"inconclusive: 14.1 µM [activator, partial curve]"

row,SMILES,Potency
1,Cc1ccc(NC(=O)C(=O)NCC(c2cccnc2)N2CCN(Cc3ccccc3)CC2)cc1Cl (stereo not drawn),inactive
2,Cc1cc(C)c2c(c1)/C(=N/NC(=S)Nc1ccc(F)cc1)CCC2,"inconclusive: 11.2 µM [activator, partial curve, poor fit]"
3,CC1(C)c2[nH]c3ccccc3c2C[C@@H]2C(=O)N(Cc3ccc(F)cc3)C(=O)N21,"inconclusive: 50.1 µM [activator, single point]"
4,COc1ccc(-c2nc(-c3cccnc3)no2)cc1,inactive
5,CCCCc1cc(=O)oc2c(C)c(OCC(=O)N3CCC(C(=O)O)(c4ccccc4)CC3)ccc12,active: 28.2 µM
6,COC(=O)[C@]12C[C@H](CC(=O)NCc3cccc(C(F)(F)F)c3)C(=O)N(Cc3cccc4ccccc34)C1=C[C@H](C(C)(C)C)O[C@@H]2C,"inconclusive: 11.2 µM [activator, partial curve, poor fit]"
7,CC(=O)Cc1nsc(NC(=O)c2ccc(-c3cc(Cl)ccc3Cl)o2)n1,"inconclusive: 0.891 µM [activator, partial curve, poor fit]"
8,COc1cccc(NC(=O)CCNC(=O)Cn2cnc3ccccc3c2=O)c1,inactive
9,Cc1cccc2c1Sc1ccccc1CC2=O,"inconclusive: 0.891 µM [activator, full curve, poor fit]"
10,O=C1NC(Cc2ccccc2)c2nc3cc(F)ccc3c(=O)n2-c2cc3ccccc3cc21 (stereo not drawn),"inconclusive: 25.1 µM [activator, single point]"
11,Cc1cccc(NC(=O)c2cc([N+](=O)[O-])ccc2Cl)c1O,inactive
12,Cc1ccc(NC(=O)CN2C(=O)CC(c3ccco3)Sc3ccccc32)cc1Cl (stereo not drawn),inactive
13,CCn1c(SCc2ccc(C)cc2)nnc1-c1cnccn1,inactive
14,O=C(CSc1nc2ccccc2c(=O)n1CC1CCCO1)N1CCN(c2ccccc2)CC1 (stereo not drawn),"inconclusive: 35.5 µM [activator, partial curve, poor fit]"
15,CC1N(O)C(c2ccc(Cl)cc2Cl)N(O)C1(C)C (stereo not drawn),inactive
16,COc1ccc(CNC(=O)CC2C[C@H](C(=O)N3CCOCC3)[C@@]3(CCC4CCCC4)c4[nH]c5ccccc5c4CCN3C2=O)cc1OC (stereo partly drawn),"inconclusive: 14.1 µM [activator, partial curve, poor fit]"
17,Cc1ccccc1NS(=O)(=O)c1ccc2[nH]cc(C(=O)NCCc3ccccc3)c(=O)c2c1,inactive
18,C#CCOCCOCCOCCNc1nc(N2CCOCC2)nc(N2CCN(C(=O)CCCCCCCCCCNC(=O)[C@@H](CCSC)n3cc(CCO)nn3)CC2)n1,"inconclusive: 20 µM [activator, partial curve]"
19,O=C(O)CSc1cc(C(=O)c2cc(F)ccc2O)cn2c(=O)c3c(-c4ccccc4)csc3nc12,"inconclusive: 7.94 µM [activator, partial curve, poor fit]"
20,COC(=O)c1cc(NC(=O)c2cc(C(C)(C)C)nn2Cc2ccc(F)cc2)ccc1N1CCOCC1,"inconclusive: 22.4 µM [activator, single point]"
21,Cc1cccc(S(=O)(=O)N(C)C[C@H]2OCc3cnnn3CCCC(=O)N([C@H](C)CO)C[C@@H]2C)c1,inactive
